Results taken from the BET-seq Pho4 binding data (Le et al. 2018).
Some of the results follow. The energies were worked out here from pooled read counts, against the library average; single values are noisy.

target: T1, Pho4 (S. cerevisiae) (UniProt P07270); assay: relative binding free energy (BET-seq); higher = weaker binding; settings: reference: library average
T1 sequence: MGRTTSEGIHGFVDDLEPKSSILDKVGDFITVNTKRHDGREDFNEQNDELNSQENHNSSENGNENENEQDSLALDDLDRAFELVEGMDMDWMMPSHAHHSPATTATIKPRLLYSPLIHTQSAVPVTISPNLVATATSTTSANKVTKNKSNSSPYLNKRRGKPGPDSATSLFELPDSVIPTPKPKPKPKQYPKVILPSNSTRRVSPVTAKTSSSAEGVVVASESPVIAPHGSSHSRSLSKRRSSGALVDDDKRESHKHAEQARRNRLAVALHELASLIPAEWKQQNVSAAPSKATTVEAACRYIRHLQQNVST

| Sequence | relative binding free energy [kcal/mol] |
| --- | --- |
| GTGCACACGTGTGGAG | 0.13 |
| AATATCACGTGCGTGT | 0.07 |
| ATGATCACGTGAGAGT | 0.23 |
| TGATCCACGTGAAGTT | 0.3 |
| CCTTGCACGTGTTTGT | -0.08 |
| GTGTGCACGTGAGCTG | 0.2 |
| ATTATCACGTGCTTGA | 0.08 |
| AGCGTCACGTGTGGGT | 0.07 |
| GGTATCACGTGTAAGG | 0.28 |
| TGTATCACGTGCTAGT | 0.1 |
| TTGGTCACGTGCGAGG | 0.18 |
| AAAGTCACGTGATCGT | 0.17 |
| TGACTCACGTGGGATG | 0.22 |
| TTTGTCACGTGGTGCA | -0.01 |
| ATATCCACGTGGTGTA | -0.01 |
| TCGGGCACGTGGGAAA | -0.03 |
| GGTCTCACGTGTGGGG | 0.27 |
| GGCGGCACGTGTGAAT | 0.12 |
| CGTGGCACGTGAGAGA | 0.15 |
| TTTTTCACGTGCTGTT | 0.36 |
| GTTGGCACGTGGCGGA | -0.01 |
| TTATACACGTGTGATC | 0.2 |
| TGGTTCACGTGGCTGG | 0.23 |
| AGTAACACGTGTAGAT | 0.14 |
| AGTGTCACGTGCCGGG | 0.07 |

| Sequence | relative binding free energy [kcal/mol] |
| --- | --- |
| GTCGGCACGTGTGCGG | -0.06 |
| AGTATCACGTGAAGGG | 0.45 |
| TGGTTCACGTGGTACT | 0.08 |
| GGGAGCACGTGGTGAT | -0.17 |
| TGAAACACGTGGGGGC | -0.05 |
| TTACTCACGTGTCTTT | 0.26 |
| CGGGACACGTGTTTAT | 0 |
| TTTCTCACGTGATTGG | 0.3 |
| CTAGGCACGTGCGGTG | -0.24 |
| GGGGTCACGTGCTGTT | 0.12 |
| TTTGTCACGTGAAAGC | 0.27 |
| GACGTCACGTGGAGTG | 0.15 |
| TATATCACGTGCGGCT | 0.22 |
| GCTTTCACGTGTTGGG | 0.28 |
| TTATTCACGTGTGGTT | 0.33 |
| ATATTCACGTGTTTAA | 0.08 |
| TCTGGCACGTGTTATG | -0.04 |
| GTTGTCACGTGAGATG | 0.34 |
| ATGGGCACGTGAATAA | 0.2 |
| TGATTCACGTGTGGAT | 0.25 |
| TGCGTCACGTGTAGTA | 0.11 |
| CGCTGCACGTGAGTGT | 0.12 |
| GGGGTCACGTGAAAAG | 0.48 |
| TGAGTCACGTGGCGGA | 0.04 |
| GATATCACGTGTTGTT | 0.25 |

| Sequence | relative binding free energy [kcal/mol] |
| --- | --- |
| TGATTCACGTGCTATG | 0.19 |
| AATATCACGTGCATGG | 0.12 |
| TTTGTCACGTGGTGTC | 0.01 |
| ACGTGCACGTGTAGGT | -0.16 |
| GTGTTCACGTGGCCTG | 0.18 |
| CGGAACACGTGGGTGA | -0.06 |
| CGAGGCACGTGAAGTT | 0.29 |
| AGAGGCACGTGTGCGG | -0.23 |
| TATTCCACGTGTTGGT | 0.19 |
| ATTTCCACGTGGTTTT | 0.12 |
| GGAAGCACGTGGTCTG | -0.27 |
| TATGGCACGTGAGTGC | 0.13 |
| TGTATCACGTGAATTG | 0.37 |
| AGATTCACGTGTGCGT | 0.09 |
| AGTTCCACGTGAGTTG | 0.29 |
| ATGGCCACGTGGGTCG | -0.22 |
| TAAGGCACGTGACGTG | -0.06 |
| GTCTACACGTGTTGTA | 0.01 |
| CTAGGCACGTGAATTG | 0.19 |
| TTTTGCACGTGCGATT | 0.07 |
| TTATACACGTGGTGTT | -0.01 |
| AAGTACACGTGTATAT | 0.12 |
| TGGTTCACGTGTGCTT | 0.22 |
